Results as given in US20240076343A1.
Each block holds one binder with its values, some of them ahead of it.

Assays:
Test in all cases: cell-based or functional assay
[1] = target: high-affinity hIL-2 receptor (IL-2Rαβγ) (human) (UniProt P01589)
[2] = target: high-affinity hIL-2 receptor (IL-2Rαβγ) on NK-92 cells (human) (UniProt P01589)
[3] = target: intermediate affinity hIL-2 receptor (hIL-2Rβγ) on TF1+IL-2Rβ cells (human) (UniProt P14784)
[4] = target: intermediate affinity hIL-2 receptor complex (IL-2Rβγ) (human) (UniProt P14784)

Fold change from rhIL-2 (NK-92), pSTAT5 titration [1]: 18 fold
Fold change from rhIL-2 (NK-92) [2]: 1 fold
Fold change from rhIL-2 (TF1 + IL-2Rβ) [3]: 1 fold
Fold change from rhIL-2 (TF1 + IL-2Rβ), pSTAT5 titration [4]: 0 fold
B1: 1H3-hIgG1-L6-hIL-2 (E62Y) (protein)
heavy: EVQLVESGGGLVQPGRSLKLSCAVSGFTFSDYAMAWVRQAPKKGLEWVATISYDGSRTYYRDSVKGRFTISRDNAKITLYLQMDSLRSEDTATYYCARHGSGYFDYWGQGVMVTVSS[not shown - about 450 residues with a human IgG1 Fc and changes]
light: DTVLTQSPALAVSPGERVTISCRASESVRTGVHWYQQKPGQQPKLLIYGASNLESGVPARFSGSGSGTDFTLTIDPVEADDTATYFCQQSWNDPFTFGSGTKLEIKRTVAAPSVFIFPPSDEQLKSGTASVVCLLNNFYPREAKVQWKVDNALQSGNSQESVTEQDSKDSTYSLSSTLTLSKADYEKHKVYACEVTHQGLSSPVTKSFNRGEC

Fold change from rhIL-2 (NK-92), pSTAT5 titration [1]: 4 fold
Fold change from rhIL-2 (NK-92) [2]: 2 fold
Fold change from rhIL-2 (TF1 + IL-2Rβ) [3]: 0 fold
Fold change from rhIL-2 (TF1 + IL-2Rβ), pSTAT5 titration [4]: 0 fold
B5: 1H3-hIgG1-L6-hIL-2 (L72D) (protein)
heavy: EVQLVESGGGLVQPGRSLKLSCAVSGFTFSDYAMAWVRQAPKKGLEWVATISYDGSRTYYRDSVKGRFTISRDNAKITLYLQMDSLRSEDTATYYCARHGSGYFDYWGQGVMVTVSS[not shown - about 450 residues with a human IgG1 Fc and changes]
light: B1 light

Fold change from rhIL-2 (NK-92), pSTAT5 titration [1]: 2 fold
Fold change from rhIL-2 (NK-92) [2]: 0 fold
Fold change from rhIL-2 (TF1 + IL-2Rβ) [3]: 1 fold
Fold change from rhIL-2 (TF1 + IL-2Rβ), pSTAT5 titration [4]: 0 fold
B9: 1H3-hIgG1-L6-hIL-2 (E68K) (protein)
heavy: EVQLVESGGGLVQPGRSLKLSCAVSGFTFSDYAMAWVRQAPKKGLEWVATISYDGSRTYYRDSVKGRFTISRDNAKITLYLQMDSLRSEDTATYYCARHGSGYFDYWGQGVMVTVSS[not shown - about 450 residues with a human IgG1 Fc and changes]
light: B1 light

Fold change from rhIL-2 (NK-92), pSTAT5 titration [1]: 63 fold
Fold change from hIL-2 (NK-92) [2]: 1 fold
Fold change from rhIL-2 (NK-92) [2]: 0 fold
Fold change from rhIL-2 (TF1 + IL-2Rβ) [3]: 34 fold
Fold change from rhIL-2 (TF1 + IL-2Rβ), pSTAT5 titration [4]: 63 fold
B10: 1H3-hIgG1-L6-hIL-2 (H16E) (protein)
heavy: EVQLVESGGGLVQPGRSLKLSCAVSGFTFSDYAMAWVRQAPKKGLEWVATISYDGSRTYYRDSVKGRFTISRDNAKITLYLQMDSLRSEDTATYYCARHGSGYFDYWGQGVMVTVSS[not shown - about 450 residues with a human IgG1 Fc and changes]
light: B1 light

Fold change from rhIL-2 (NK-92), pSTAT5 titration [1]: 2 fold
Fold change from rhIL-2 (NK-92) [2]: 3 fold
Fold change from rhIL-2 (TF1 + IL-2Rβ) [3]: 3 fold
Fold change from rhIL-2 (TF1 + IL-2Rβ), pSTAT5 titration [4]: 1 fold
B11: 1H3-hIgG1-L6-hIL-2 (L72R) (protein)
heavy: EVQLVESGGGLVQPGRSLKLSCAVSGFTFSDYAMAWVRQAPKKGLEWVATISYDGSRTYYRDSVKGRFTISRDNAKITLYLQMDSLRSEDTATYYCARHGSGYFDYWGQGVMVTVSS[not shown - about 450 residues with a human IgG1 Fc and changes]
light: B1 light

Second part, the binder before the results:

B2: 1H3-hIgG1-L6-hIL-2 (D20A/F42W) (protein)
heavy: EVQLVESGGGLVQPGRSLKLSCAVSGFTFSDYAMAWVRQAPKKGLEWVATISYDGSRTYYRDSVKGRFTISRDNAKITLYLQMDSLRSEDTATYYCARHGSGYFDYWGQGVMVTVSS[not shown - about 450 residues with a human IgG1 Fc and changes]
light: B1 light
Fold change from hIL-2 (NK-92), pSTAT5 fixed conc. [1]: 16 fold
Agonistic Activity (NK-92) [2]: 70%
Fold change from rhIL-2 (NK-92) [2]: 414 fold
Agonistic Activity (TF1 + IL-2Rβ) [3]: 70%
Fold change from rhIL-2 (TF1 + IL-2Rβ) [3]: 400 fold
Fold change from hIL-2 (TF1 + IL-2Rβ), pSTAT5 fixed conc. [4]: 2 fold

B3: 1H3-hIgG1-L6-hIL-2 (D20A/Y45Q) (protein)
heavy: EVQLVESGGGLVQPGRSLKLSCAVSGFTFSDYAMAWVRQAPKKGLEWVATISYDGSRTYYRDSVKGRFTISRDNAKITLYLQMDSLRSEDTATYYCARHGSGYFDYWGQGVMVTVSS[not shown - about 450 residues with a human IgG1 Fc and changes]
light: B1 light
Fold change from hIL-2 (NK-92), pSTAT5 fixed conc. [1]: 17 fold
Agonistic Activity (NK-92) [2]: 70%
Fold change from rhIL-2 (NK-92) [2]: 730 fold
Agonistic Activity (TF1 + IL-2Rβ) [3]: 70%
Fold change from rhIL-2 (TF1 + IL-2Rβ) [3]: 348 fold
Fold change from hIL-2 (TF1 + IL-2Rβ), pSTAT5 fixed conc. [4]: 3 fold

B4: 1H3-hIgG1-L6-hIL-2 (D20A/Y45N) (protein)
heavy: EVQLVESGGGLVQPGRSLKLSCAVSGFTFSDYAMAWVRQAPKKGLEWVATISYDGSRTYYRDSVKGRFTISRDNAKITLYLQMDSLRSEDTATYYCARHGSGYFDYWGQGVMVTVSS[not shown - about 450 residues with a human IgG1 Fc and changes]
light: B1 light
Fold change from hIL-2 (NK-92), pSTAT5 fixed conc. [1]: 14 fold
Fold change from rhIL-2 (NK-92) [2]: 31 fold
Agonistic Activity (TF1 + IL-2Rβ) [3]: 70%
Fold change from rhIL-2 (TF1 + IL-2Rβ) [3]: 390 fold
Fold change from hIL-2 (TF1 + IL-2Rβ), pSTAT5 fixed conc. [4]: 2 fold

B6: 1H3-hIgG1-L6-hIL-2 (E62K) (protein)
heavy: EVQLVESGGGLVQPGRSLKLSCAVSGFTFSDYAMAWVRQAPKKGLEWVATISYDGSRTYYRDSVKGRFTISRDNAKITLYLQMDSLRSEDTATYYCARHGSGYFDYWGQGVMVTVSS[not shown - about 450 residues with a human IgG1 Fc and changes]
light: B1 light
Fold change from rhIL-2 (NK-92), pSTAT5 titration [1]: 2048 fold
Agonistic Activity (NK-92) [2]: 40 to 70%
Fold change from rhIL-2 (NK-92) [2]: > 10000 fold
Agonistic Activity (TF1 + IL-2Rβ) [3]: 60%
Fold change from rhIL-2 (TF1 + IL-2Rβ), pSTAT5 titration [4]: 10 fold

B7: 1H3-hIgG1-L6-hIL-2 (D20A/F42P) (protein)
heavy: EVQLVESGGGLVQPGRSLKLSCAVSGFTFSDYAMAWVRQAPKKGLEWVATISYDGSRTYYRDSVKGRFTISRDNAKITLYLQMDSLRSEDTATYYCARHGSGYFDYWGQGVMVTVSS[not shown - about 450 residues with a human IgG1 Fc and changes]
light: B1 light
Fold change from hIL-2 (NK-92), pSTAT5 fixed conc. [1]: 17 fold
Fold change from rhIL-2 (NK-92), pSTAT5 titration [1]: > 10000 fold
Agonistic Activity (NK-92) [2]: 80%
Fold change from rhIL-2 (NK-92) [2]: 9370 fold
Agonistic Activity (TF1 + IL-2Rβ) [3]: 80%
Fold change from rhIL-2 (TF1 + IL-2Rβ) [3]: 702 fold
Fold change from hIL-2 (TF1 + IL-2Rβ), pSTAT5 fixed conc. [4]: 2 fold
Fold change from rhIL-2 (TF1 + IL-2Rβ), pSTAT5 titration [4]: 13 fold

B8: 1H3-hIgG1-L6-hIL-2 (E62R) (protein)
heavy: EVQLVESGGGLVQPGRSLKLSCAVSGFTFSDYAMAWVRQAPKKGLEWVATISYDGSRTYYRDSVKGRFTISRDNAKITLYLQMDSLRSEDTATYYCARHGSGYFDYWGQGVMVTVSS[not shown - about 450 residues with a human IgG1 Fc and changes]
light: B1 light
Agonistic Activity (NK-92), pSTAT5 titration [1]: 80%
Fold change from rhIL-2 (NK-92), pSTAT5 titration [1]: > 10000 fold
Fold change from rhIL-2 (NK-92) [2]: > 10000 fold
Agonistic Activity (TF1 + IL-2Rβ) [3]: 60%
Fold change from rhIL-2 (TF1 + IL-2Rβ) [3]: 209 fold
Fold change from rhIL-2 (TF1 + IL-2Rβ), pSTAT5 titration [4]: 38 fold

B12: 1H3-hIgG1-L6-hIL-2 (D20A/F42Y) (protein)
heavy: EVQLVESGGGLVQPGRSLKLSCAVSGFTFSDYAMAWVRQAPKKGLEWVATISYDGSRTYYRDSVKGRFTISRDNAKITLYLQMDSLRSEDTATYYCARHGSGYFDYWGQGVMVTVSS[not shown - about 450 residues with a human IgG1 Fc and changes]
light: B1 light
Fold change from hIL-2 (NK-92), pSTAT5 fixed conc. [1]: 17 fold
Agonistic Activity (NK-92) [2]: 70%
Fold change from rhIL-2 (NK-92) [2]: 322 fold
Agonistic Activity (TF1 + IL-2Rβ) [3]: 70%
Fold change from rhIL-2 (TF1 + IL-2Rβ) [3]: 545 fold
Fold change from hIL-2 (TF1 + IL-2Rβ), pSTAT5 fixed conc. [4]: 2 fold
